Results taken from the supplement of paper PMC3722116.

Columns and labels:
artesunate [1] = compound: T1, C[C@H]1[C@H](OC(=O)CCC(=O)O)O[C@@H]2O[C@@]3(C)CC[C@H]4[C@H](C)CC[C@@H]1[C@@]24OO3 [artesunate]; assay: slope of the dose-response curve (dimensionless); higher = steeper concentration-effect curve
Protocol: (§1)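 Hypoxanthine uptake by fresh isolates, duplicate serial dilutions, 24 h of drug plus 18 h after the label; sigmoid fit per isolate.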

mefloquine [2] = compound: T2, OC(c1cc(C(F)(F)F)nc2c(C(F)(F)F)cccc12)C1CCCCN1 [mefloquine]; assay: as above
Protocol: as §1

chloroquine [3] = compound: T3, CCN(CC)CCCC(C)Nc1ccnc2cc(Cl)ccc12 [chloroquine]; assay: as above
Protocol: as §1

artesunate [4] = compound: T1, artesunate
Protocol: as §1

mefloquine [5] = compound: T2, mefloquine
Protocol: as §1

chloroquine [6] = compound: T3, chloroquine
Protocol: as §1

Test System | slope (artesunate [1]) | slope (mefloquine [2]) | slope (chloroquine [3]) | EC50 of parasite growth (artesunate [4]) [µg/mL] | EC50 of parasite growth (mefloquine [5]) [µg/mL] | EC50 of parasite growth (chloroquine [6]) [µg/mL]
Plasmodium falciparum isolate 81 (pfmdr1 allele: 86N, 1042N, pfmdr1 copies: 2) | 9.96 | 2.29 | 2.99 | 0.00331 | 0.173 | 0.228
Plasmodium falciparum isolate 432 (pfmdr1 allele: 86Y, pfmdr1 copies: 1) | 7.6 | 2.71 | 4.33 | 0.000833 | 0.0237 | 0.318
Plasmodium falciparum isolate 282 (pfmdr1 allele: 86N, 1042N, pfmdr1 copies: 2) | 2.23 | 1.03 | 1.9 | 0.000219 | 0.00165 | 1.12
Plasmodium falciparum isolate 226 (pfmdr1 allele: 86N, 1042N, pfmdr1 copies: 3) | 4.28 | 2 | 1.99 | 0.00165 | 0.125 | 0.0773
Plasmodium falciparum isolate 281 (pfmdr1 allele: 86N, 1042N, pfmdr1 copies: 3) | 6.45 | 1.51 | 1.68 | 0.00258 | 0.0817 | 0.106
Plasmodium falciparum isolate 271 (pfmdr1 allele: 86N, 1042N, pfmdr1 copies: 3) | 2.57 | 1.68 | 4.05 | 0.00282 | 0.0129 | 0.0482
Plasmodium falciparum isolate 417 (pfmdr1 allele: 86N, 1042N, pfmdr1 copies: 1) | 3.65 | 2.71 | 2.11 | 0.00102 | 0.0461 | 0.108
Plasmodium falciparum isolate 233 (pfmdr1 allele: 86N, 1042N, pfmdr1 copies: 3) | 4.27 | 9.89 | 4.26 | 0.00173 | 0.113 | 0.0859
Plasmodium falciparum isolate 1 (pfmdr1 allele: 86N, 1042N, pfmdr1 copies: 3) | 1.64 | 3.12 | 4.64 | 0.00244 | 0.0317 | 0.0589
Plasmodium falciparum isolate 477 (pfmdr1 allele: 86N, 1042N, pfmdr1 copies: 1) | 2.63 | 1.04 | 3.17 | 0.00032 | 0.00776 | 0.202
Plasmodium falciparum isolate 242 (pfmdr1 allele: 86N, 1042N, pfmdr1 copies: 1) | 3.18 | 3.35 | 4.94 | 0.00356 | 0.0481 | 0.482
Plasmodium falciparum isolate 69 (pfmdr1 allele: 86N, 1042N, pfmdr1 copies: 1) | 4.38 | 1.44 | 2.52 | 0.00162 | 0.0101 | 0.0531
Plasmodium falciparum isolate 50 (pfmdr1 allele: 86N, 1042N, pfmdr1 copies: 2) | 4.19 | 2.4 | 3.72 | 0.00267 | 0.0889 | 0.0885
Plasmodium falciparum isolate 308 (pfmdr1 allele: 86N, 1042N, pfmdr1 copies: 2) | 8 | 1.78 | 3.12 | 0.00161 | 0.0413 | 0.1
Plasmodium falciparum isolate 123 (pfmdr1 allele: 86N, 1042N, pfmdr1 copies: 2) | 1.32 | 1.68 | 1.42 | 0.00196 | 0.0167 | 0.068
Plasmodium falciparum isolate 80 (pfmdr1 allele: 1042D, pfmdr1 copies: 1) | 7.24 | 4.4 | 3.62 | 0.00422 | 0.0283 | 0.229
Plasmodium falciparum isolate 108 (pfmdr1 allele: 86N, 1042N, pfmdr1 copies: 2) | 10 | 4.27 | 4.21 | 0.00337 | 0.074 | 0.11
Plasmodium falciparum isolate 316 (pfmdr1 allele: 86N, 1042N, pfmdr1 copies: 1) | 5.41 | 2.71 | 2.1 | 0.000388 | 0.0188 | 0.184
Plasmodium falciparum isolate 202 (pfmdr1 allele: 86N, 1042N, pfmdr1 copies: 1) | 2.24 | 2.46 | 4.29 | 0.000715 | 0.0156 | 0.227
Plasmodium falciparum isolate 292 (pfmdr1 allele: 86N, 1042N, pfmdr1 copies: 1) | 3.39 | 0.934 | 1.54 | 0.000554 | 0.00822 | 0.368
Plasmodium falciparum isolate 115 (pfmdr1 allele: 86N, 1042N, pfmdr1 copies: 1) | 2.77 | 1.71 | 3.55 | 0.000459 | 0.0145 | 0.375
Plasmodium falciparum isolate 301 (pfmdr1 allele: 86N, 1042N, pfmdr1 copies: 3) | 9.66 | 9.95 | 4.55 | 0.00212 | 0.116 | 0.115
Plasmodium falciparum isolate 55 (pfmdr1 allele: 86N, 1042N, pfmdr1 copies: 1) | 4.01 | 2.04 | 2.9 | 0.00075 | 0.0062 | 0.0457
Plasmodium falciparum isolate 420 (pfmdr1 allele: 86N, 1042N, pfmdr1 copies: 3) | 10 | 4.13 | 4.56 | 0.000839 | 0.0263 | 0.295

Test System | slope (artesunate [1]) | slope (mefloquine [2]) | slope (chloroquine [3]) | EC50 of parasite growth (artesunate [4]) [µg/mL] | EC50 of parasite growth (mefloquine [5]) [µg/mL] | EC50 of parasite growth (chloroquine [6]) [µg/mL]
Plasmodium falciparum isolate 74 (pfmdr1 allele: 86N, 1042N, pfmdr1 copies: 1) | 2.86 | 4.46 | 9.99 | 0.00161 | 0.0557 | 0.17
Plasmodium falciparum isolate 165 (pfmdr1 allele: 86N, 1042N, pfmdr1 copies: 2) | 10 | 1.87 | 2.53 | 0.0029 | 0.0382 | 0.127
Plasmodium falciparum isolate 455 (pfmdr1 allele: 86N, 1042N, pfmdr1 copies: 1) | 3.67 | 1.72 | 5.14 | 0.0021 | 0.0375 | 0.206
Plasmodium falciparum isolate 23 (pfmdr1 allele: 86N, 1042N, pfmdr1 copies: 1) | 5.46 | 3.8 | 2.93 | 0.000728 | 0.0157 | 0.0801
Plasmodium falciparum isolate 334 (pfmdr1 allele: 86N, 1042N, pfmdr1 copies: 3) | 4.5 | 2.13 | 2.52 | 0.00135 | 0.0657 | 0.085
Plasmodium falciparum isolate 482 (pfmdr1 allele: 86N, 1042N, pfmdr1 copies: 3) | 6.03 | 5.02 | 2.75 | 0.00375 | 0.198 | 0.247
Plasmodium falciparum isolate 76 (pfmdr1 allele: 86N, 1042N, pfmdr1 copies: 3) | 7.57 | 4.05 | 3.37 | 0.00427 | 0.064 | 0.0675
Plasmodium falciparum isolate 407 (pfmdr1 allele: 86N, 1042N, pfmdr1 copies: 1) | 2.83 | 2.04 | 4 | 0.00154 | 0.0152 | 0.0715
Plasmodium falciparum isolate 457 (pfmdr1 allele: 86N, 1042N, pfmdr1 copies: 2) | 10 | 2.18 | 9.44 | 0.001 | 0.0593 | 0.354
Plasmodium falciparum isolate 188 (pfmdr1 allele: 86N, 1042N, pfmdr1 copies: 1) | 2.64 | 2.06 | 4.34 | 0.000692 | 0.00625 | 0.0458
Plasmodium falciparum isolate 199 (pfmdr1 allele: 86N, 1042N, pfmdr1 copies: 1) | 3 | 1.91 | 3.42 | 0.000659 | 0.0323 | 0.123
Plasmodium falciparum isolate 338 (pfmdr1 allele: 86N, 1042N, pfmdr1 copies: 1) | 2.9 | 1.67 | 5.05 | 0.00066 | 0.00669 | 0.117
Plasmodium falciparum isolate 403 (pfmdr1 allele: 86N, 1042N, pfmdr1 copies: 2) | 2.67 | 3.85 | 4.29 | 0.00167 | 0.0141 | 0.0398
Plasmodium falciparum isolate 158 (pfmdr1 allele: 86N, 1042N, pfmdr1 copies: 1) | 2.56 | 4.32 | 3.26 | 0.000557 | 0.0175 | 0.473
Plasmodium falciparum isolate 122 (pfmdr1 allele: 86N, 1042N, pfmdr1 copies: 3) | 3.51 | 3.02 | 4.58 | 0.0153 | 0.12 | 0.196
Plasmodium falciparum isolate 20 (pfmdr1 allele: 86N, 1042N, pfmdr1 copies: 1) | 4.36 | 5.62 | 8.91 | 0.0137 | 0.0795 | 0.397
Plasmodium falciparum isolate 447 (pfmdr1 allele: 86N, 1042N, pfmdr1 copies: 2) | 4.44 | 4.81 | 4.81 | 0.0144 | 0.107 | 0.303
Plasmodium falciparum isolate 430 (pfmdr1 allele: 86N, 1042N, pfmdr1 copies: 1) | 8.43 | 1.4 | 1.35 | 0.00124 | 0.0204 | 0.0848
Plasmodium falciparum isolate 40 (pfmdr1 allele: 86N, 1042N, pfmdr1 copies: 1) | 3.62 | 2.97 | 3.32 | 0.000942 | 0.00622 | 0.0419
Plasmodium falciparum isolate 272 (pfmdr1 allele: 86N, 1042N, pfmdr1 copies: 2) | 1.35 | 2.87 | 2.48 | 0.00284 | 0.0427 | 0.0677
Plasmodium falciparum isolate 46 (pfmdr1 allele: 86N, 1042N, pfmdr1 copies: 2) | 6.07 | 3.48 | 5.81 | 0.00275 | 0.0377 | 0.417
Plasmodium falciparum isolate 95 (pfmdr1 allele: 86N, 1042N, pfmdr1 copies: 2) | 2.49 | 1.84 | 3.76 | 0.000968 | 0.0248 | 0.227
Plasmodium falciparum isolate 201 (pfmdr1 allele: 86Y, pfmdr1 copies: 1) | 1.66 | 1.26 | 1.99 | 0.00075 | 0.0184 | 0.217
Plasmodium falciparum isolate 291 (pfmdr1 allele: 86N, 1042N, pfmdr1 copies: 4) | 10 | 9.98 | 5.92 | 0.00329 | 0.109 | 0.196

Growth of fresh clinical P. falciparum isolates by hypoxanthine uptake over 42 h; for most isolates 1.6-1,647 nM mefloquine, 0.044-87 nM artesunate, 10-10,256 nM chloroquine, 2.4-236 nM lumefantrine. EC50, lower = more sensitive; slope from the same fit, higher = steeper. No active / inactive call. Fits with a coefficient of variation above 100% are not listed here; 15-28% of fits exceed 15%. Isolates are numbered anew.
